B1: LINE1-mini (parent)
chain: GGCAGAGCUCAACACAGCGUGGCAAAGUGGCUGUGGCUAGACUGCC

The record followed here is the RNAGym collection of RNA variant scans (doi:10.7554/elife.90254).

The source gives no read counts; variants with many changes may rest on few reads.

Variants of B1 are the subject of the data set. Kind of data set: self-cleavage, relative activity (ratio to wild type); higher = more cleavage; in vitro, sequencing; the parent is a self-cleaving ribozyme.
For G1U A11C A12C G21C C46A, the self-cleavage came to 0. As for A11U A12C A14C A25U G27U G36C, the self-cleavage was found to be 0.01. The figure for G5C U9G G22U C42U is 0.01; for G21C G27C C31U it is 0.04; for G29C U32A C37A it is 0.03. For the variant G30U U32C A39G, the self-cleavage came out at 0.03.

C18U G40U C45G: the self-cleavage was 0.02. Next, G27U G29U U34G: 0.11; G5U G7A G29C A41G: 0.1. As to G2C G19A G22U G44C, the self-cleavage was 0.14. On to C10G C18A G35A, for which the self-cleavage was found to be 0.03.

G1U C15A U20A G29U G40A U43G: the self-cleavage amounted to 0.01. Next, G44U C45A C46A: 0.07; G7U C31U G35U: 0.01; C10G G29C G30U C45U: 0.04. For C8A A11G G40A, the self-cleavage was 0.01. The figure for G5U C13A G21U is 0.15; for A25G G36A G44A it is 0.18. For the variant A4C G5C U34C G40A A41C, the self-cleavage worked out at 0.04. Next, A16C C23U C42A: 0.05; G2A G19A G22C: 0.69. U28C G30A A41U C42U C45U: the self-cleavage stood at 0.05. For the variant A6U U9G A41C, the self-cleavage amounted to 0.02. As to C8U A16G U28A G33C, the self-cleavage worked out at 0.06. Next, A24C G27C G35A G40A: 0.03.

Consider C18G A24U U32G, for which the self-cleavage worked out at 0.09. Turning to U9G A11C A41U, the self-cleavage is 0.01. Next, A11C A16U G44U C45G: 0; C15U A24U C31U A41C C42A: 0.08; C8A G17U G22A G36C: 0.12. Next, A14G U28G G44U C46U: 0.02. On to G7A C13G A14U G30C, for which the self-cleavage came out at 0.02. Turning to C10A A12G A41G C46U, the self-cleavage is 0.01. Next, C18A A25U A26G: 0.17; C18G U20G U28G: 0.02; A4C C8U U9A C18U: 0.34. As to A25C G29C A41U, the self-cleavage stood at 0.5. For A6U G21A U28A C31A G36C, the self-cleavage came out at 0.48. As to A16U G36C G40C G44U, the self-cleavage turned out to be 0. The figure for G2U G19C G22U C23U C31U is 0.22. For the variant A11U A25U C46G, the self-cleavage was determined as 0.21.

C10A A16G G40U: the self-cleavage is 0.01. Next, A16G U34C G40U C42G G44A: 0.01; G5A C10A G30U C31U U32A C37G U43A: 0.01. The figure for G19A G22C A26U U34G is 0.12; for C31A U32G G35C it is 0.11; for A25U G27U U28A C37G it is 0.01.

In the case of C3A C15G G27A, the self-cleavage amounted to 0.04. Next, C13A G19U G33C: 0.06; U9C G21A G27A U32G G36C: 0.04. Next, C3A G7A C10A G17U: 0.06; G5A G19U C37U: 0.03; C13U G22U C31U G35A G44U: 0.03. Turning to G2A A6C G21U G27A, the self-cleavage was 1.23.

Take G29A G33A G35U: the self-cleavage stood at 0. As to G22U A39G G44A, the self-cleavage was 0.17. Regarding C3G G7U C23G A26G U32A, the self-cleavage was 0.07.

In the case of C10G A14C G17C C42U, the self-cleavage turned out to be 0.02.

Regarding C13U C18A G35C A41U C42G, the self-cleavage stood at 0.01. As for G21U C42G C46G, the self-cleavage is 0.1. For G1U G17A G35C, the self-cleavage amounted to 0.05. Next, G5U G19C C46A: 0.05; A24U G27U G35A: 0.08. Turning to G1C C10U A26U, the self-cleavage is 0.02.

For A26U G30C G40U, the self-cleavage was 0.09. Next, C8U A11U G21U C31A: 0; C3A C23U G27C G33C: 0.14; A12C A25C A39G C45A: 0.02. Next, C13A G17C G35C: 0.24; G1C A4C C18A G35A: 0.02.

For the variant C13U G19C G27C G40U G44U, the self-cleavage stood at 0.05.

With A6G C13A A14G C18A U20A U34A G44U, the self-cleavage was determined as 0.01. G21U G30A G36U: the self-cleavage worked out at 0.02.

As to G2A U9A C42U, the self-cleavage turned out to be 0.45. The figure for G5U C8U C13U G40C is 0.03. The figure for G2C C13A G17A G19U C23A is 0.02. The figure for G7A G30C A39C C42U is 0.19; for G17U G22A C42A C46G it is 0.06; for U9C G27U U28C it is 0.02. On to A6U A14C A16C, for which the self-cleavage was 0.26.

Regarding A11C A14U U38C A39C, the self-cleavage is 0.04. The figure for G7C C10A C15G C18U G30C U32G C37G is 0.01; for G17C U20G G21A C23A G29A G33C A39C C42U it is 0.02; for C3A A12U A26C it is 0.59. Next, U9G C23U G29U: 0.09; G5A A16U G30U C37U C46A: 0.04; C3U A14G C23G: 0.07. For the variant C8G A11U C13U A14G A24U, the self-cleavage turned out to be 0.03. Next, G7U C23G C31G C45A: 0.08; G1C U20G A25U U38G: 0; G17U C18A G22C G44A: 0.12.

Consider G19A A25C U43A G44A, for which the self-cleavage is 0.03. On to U34A G36A U43G C45U, for which the self-cleavage amounted to 0.02. Take C15G C23A A25G C42U: the self-cleavage is 0. Regarding G2U A4C G21C, the self-cleavage was 0.08.

Consider A6G G22U G30C C46U, for which the self-cleavage was determined as 0.14. Consider A6G C10A G35U A41G, for which the self-cleavage was 0.01. In the case of G1C A26G G29U G44C, the self-cleavage worked out at 0.06. Next, C8G G19A U28A G30C C31G A41G: 0. Turning to A6U C8A C10G G27A, the self-cleavage came out at 0.02. For the variant A4G A11U C31A U32G C45U, the self-cleavage is 0.02. With G1C A6U C10A A11G, the self-cleavage is 0.02. The figure for G5A G7C G17C G30U G40C G44A is 0.02. With G1C G17U U32C, the self-cleavage was determined as 0.03.

For G1A A4C A6C A25G, the self-cleavage was determined as 0.07. The figure for C15A A25U C37U G40U G44C is 0.03; for A11U C13A C18G G22U it is 0; for C23U A24G G33U C45U it is 0. On to G7U U9G G22C G29C C42A, for which the self-cleavage is 0.01. Take G1A G5C U34C: the self-cleavage amounted to 0.15.

In the case of G5U A14C G19C C23U A25U, the self-cleavage was found to be 0.01.

As for A6U A12G G22C C31U, the self-cleavage was 0.01. The figure for A6G G19A U20G C31A C45A is 0.1; for A6G G19U A24G U32C G36C it is 0.01; for C8A C10G A14C it is 0.03.

Regarding A11G G29U G36C, the self-cleavage was found to be 0. For G19A G30A G40C U43C, the self-cleavage was determined as 0.02. The figure for U9G C10G A12U G22C is 0.

As for U9C A24U U34A G36C A41U, the self-cleavage amounted to 0.01. Take A6C C10G G30C: the self-cleavage came to 0.01. The figure for A4C A14C G22C A39G C46U is 0.31; for A4U C23U G40U it is 0.26; for C13G C15G U20G A26C C42U G44U it is 0.02. The figure for C13A C18U U32C G36U is 0.06; for G2C C10G U38C G40U it is 0. Next, G2A A16U C18U U28A: 0.07; C10A G21C G27U U32A: 0.02; G22A U34G U38G: 0.03. As for C3G U9A U20A, the self-cleavage is 0.04. Take A4U G7A C8U C23A G27C U28A G29U: the self-cleavage stood at 0.04. The figure for G2U G22C G30C G44U is 0.04; for G19U U20G A24C it is 1.13. Next, G1U C15A C45A: 0.06; C8G C15U G35C G40A: 0.07. The figure for G30C G35U G44C is 0.02; for G19U C23U G33U A39G it is 0.07. Take A11G C13A G29U: the self-cleavage amounted to 0.06. On to G1U C10U A41C, for which the self-cleavage is 0. As to A14C C18U A24U U38G, the self-cleavage was 0.02. The figure for A14G C31A U32G U34G C46A is 0.02; for C3G C8U A24G A26G G35U C46G it is 0.19. Regarding C13U G33A C45A, the self-cleavage was 0. The figure for G7A U9C G27U G33U is 0.1; for G7C A25G A41G it is 0.

G5A C18U G44U: the self-cleavage stood at 0.24. In the case of G27U G30U G40A, the self-cleavage came out at 0.56.

For the variant U28A G29C C31U C45U, the self-cleavage was 0.44. Next, G29A G40A G44U: 0.17; G5C C10A G21U A24C: 0.02.

As for G2U C3U C10A, the self-cleavage was determined as 0.03. As to C3U A12U A39G, the self-cleavage amounted to 0.02. For the variant A4G C15U A26U G36A C46G, the self-cleavage came out at 0.24. Next, C10G C23A G27C G33C C45U: 0.04. Take C13U G40C U43C: the self-cleavage came to 0. Regarding A6C U20A C37G, the self-cleavage is 0. The figure for C8A G17C C18U G22A is 0.1.

In the case of G1A C8G A12C G22C, the self-cleavage was found to be 0.02.

On to G2A C3A G22C G44A, for which the self-cleavage was 0.61. For C18A G21U U43C, the self-cleavage is 0.1. Next, A4C G7A C15A U32C: 0.15; A14G G29C U43A: 0.01.

Consider G1A A16U A25C G35U, for which the self-cleavage turned out to be 0.2. Take A16C C18U G33U G36C C42A: the self-cleavage is 0. C37A A41G C45U: the self-cleavage was found to be 0.03. For U9C A16U C45G, the self-cleavage was 0.02.

For the variant C8G C13U C15G, the self-cleavage came out at 0.06. Next, A6U C23A G27A: 0.58.
